# Measurements as given in PubChem BioAssay AID463173 (ICCB-Longwood Screening Facility, Harvard Medical School, 2010).
# About 1,700 (3.3%) of roughly 52,000 compounds were called active. Cut-off read from the data, not from the text of the source: active = survival mostly below about 52% (no sharp cut-off); inactive = mostly above about 56%. The list shows a part of the results.
# System: Wild type
# Assay: growth inhibition of S. aureus wild type versus tarO mutant, primary screen, teichoic acid synthesis inhibitors, RN4220, OD600 (AID 463173)
# Settings: S. aureus RN4220 wild type/DeltatarO growth, OD600, 18 h, stronger effect = lower value, screened at 18.75 µg/mL (by protocol)
row,SMILES,survival
1,Cc1oc2ccc(NS(=O)(=O)c3ccc(F)cc3)cc2c1C(=O)O,inactive: 146%
2,Cc1ccccc1CNC(=O)c1ccc(NC(=O)N2CCCCc3ccccc32)cc1,inactive: 66%
3,COc1cc(CNCCSc2nnnn2C)ccc1OCc1ccccc1C,inactive: 68%
4,Cc1c(CN(C)C(=O)c2cc(-c3ccccc3)nc3ccc(Br)cc23)cnn1C,inactive: 66%
5,Cc1ccccc1-c1noc(-c2ccc(N3CCC(C)CC3)c([N+](=O)[O-])c2)n1,inactive: 84%
6,CNc1nc(C)c(C(=O)OCC(=O)OC)s1,inactive: 113%
7,CSc1ncc(Cl)c(C(=O)Nc2c(C(=O)Nc3cccc(C)c3)oc3ccccc23)n1,inactive: 89%
8,Cc1ccc(S(=O)(=O)c2c(Nc3ccc(C)c(C)c3)sc(C(=O)c3ccc4c(c3)OCO4)c2N)cc1,inactive: 140%
9,O=C1c2ccccc2C(=O)N1CCN1C(=O)c2ccccc2C1=O,inactive: 110%
10,O=C(Nc1c(C(=O)c2ccccc2)oc2ccccc12)c1ccc(F)cc1,inactive: 66%
11,CCOc1ccc(C(=O)Nc2ccc3oc(-c4cccc5ccccc45)nc3c2)cc1,inactive: 73%
12,O=C1CN(C(=O)c2ccc(S(=O)(=O)N3CCCC3)cc2)C(c2ccccc2)c2cc(Cl)ccc2N1 (stereo not drawn),inactive: 90%
13,NNC(=O)c1nnn(-c2nonc2N)c1CN1CCCC1,inactive: 103%
14,CC(C)c1nc2ccc(C(=O)NCCCN3CCN(c4ccccc4)CC3)cc2o1,inactive: 128%
15,O=C(CN1CCN(Cc2ccc(F)cc2Cl)C1=O)NCCc1ccc(Cl)cc1,inactive: 69%
16,Cc1cc(C)n(CC(=O)Nc2cc(F)ccc2F)c(=O)c1C#N,inactive: 55%
17,COc1ccc(C(=O)Nc2nc(-c3nnn(-c4ccc(F)cc4F)c3C)ns2)cc1,inactive: 124%
18,COc1cccc(C(=O)Nc2ccc3nc4n(c(=O)c3c2)CCCCC4)c1,inactive: 73%
19,Cc1ccc(O)c(Nc2nc3ccccc3c3nncn23)c1,inactive: 87%
20,COc1ccc(OC)c(NC(=O)N2CC(C)Oc3ccc(C)cc32)c1 (stereo not drawn),inactive: 89%

row,SMILES,survival
1,Cc1ccc(C(=O)c2cn(CC(=O)NCc3ccccc3)c3nc(C)ccc3c2=O)cc1,inactive: 80%
2,O=C1CS/C(=N\N=C/c2ccccc2)N1,inactive: 110%
3,CCOc1ccc(-c2nc(C(N)=O)c3c(n2)n(-c2ccc4c(c2)OCO4)c(=O)n3CC)cc1,inactive: 79%
4,COc1ccc(Cl)cc1NC(=O)CSc1nnc2[nH]c(=O)cc(C)n12,inactive: 97%
5,Cc1ccc(CNC(=O)Cn2cc3c(n2)-c2c(oc(C(=O)N4CCOCC4)c2C)CC3)cc1,inactive: 85%
6,O=S(=O)(NCC(c1ccco1)N1CCOCC1)c1ccc(F)cc1 (stereo not drawn),inactive: 84%
7,Cc1cc(C)c2oc(C(=O)Nc3c(C(=O)c4ccccc4)oc4ccccc34)cc(=O)c2c1,inactive: 88%
8,CC1=C(C(N)=O)C(c2ccccc2F)n2nc(-c3ccc(Cl)cc3)nc2N1 (stereo not drawn),inactive: 94%
9,COC(=O)c1cc(S(=O)(=O)N2CCN(c3cc(Cl)ccc3C)CC2)c[nH]1,active: 8%
10,COc1cc2c(=O)c(C(=O)c3ccc(F)cc3)cn(Cc3cccc(F)c3)c2cc1OC,inactive: 88%
11,Cc1ccc(C(=O)NCCC(C)C)cc1NC(=O)c1nsc2ccccc12,inactive: 69%
12,CCN(CC)c1ccc(NC(=O)Cn2c3ncccc3c(=O)n2-c2ccccc2)c(C)c1,inactive: 68%
13,COc1ccccc1CNc1ncnc2c1c(-c1ccccc1)cn2-c1ccc(Br)cc1,inactive: 71%
14,Cc1ccc2c(c1)-c1c(cnn1CC(=O)N1CCN(c3cc(C)ccc3C)CC1)CO2,inactive: 64%
15,Cc1ccccc1S(=O)(=O)Cc1ccc(C(=O)NCCc2ccccc2)o1,inactive: 91%
16,CCOc1ccc(-c2nnc(N(C(=O)C3CCC3)C(C)C)s2)cc1,inactive: 106%
17,Cc1ccccc1CNC(=O)C(=O)NCC(c1ccc2c(c1)OCO2)N1CCOCC1 (stereo not drawn),inactive: 68%
18,CCC1CCCCN1C1CC(=O)N(c2ccc(NC(C)=O)cc2)C1=O (stereo not drawn),inactive: 100%
19,CN(CCCNC(=O)Cn1ncc2c([nH]c3ccccc32)c1=O)Cc1ccccc1,inactive: 73%
20,CC1CCN(c2csc3ccc(F)cc3c2=O)CC1,inactive: 126%

row,SMILES,survival
1,Cc1n[nH]c(C)c1Cc1ccc(N)cc1,inactive: 112%
2,O=C(NCc1ccc(Cl)cc1)c1ccc(CNS(=O)(=O)c2ccc(F)cc2)cc1,inactive: 75%
3,CC(C)N1CCc2c(sc(NC(=O)c3ccc(S(=O)(=O)N(C)C4CCCCC4)cc3)c2C(N)=O)C1,inactive: 88%
4,COCCc1nn2c(=O)cc(COC(=O)c3ccco3)nc2s1,inactive: 76%
5,O=C(Nc1ccccc1)C1CC(=O)N(c2ccccc2)C1 (stereo not drawn),inactive: 105%
6,CC(=O)c1ccc(NC(=O)c2cc(S(=O)(=O)N3CCOCC3)ccc2C)cc1,inactive: 67%
7,O=C(CCN1CCCCC1)Nc1ccccc1,inactive: 110%
8,CCC(Sc1nc2cc(OC)c(OC)cc2c(=O)n1Cc1ccc(OC)cc1)C(=O)NCCOC (stereo not drawn),inactive: 69%
9,Cc1cc(N2CCN(c3ccccc3)CC2)n2cnnc2n1,inactive: 92%
10,COc1ccc(CCNC(=O)c2ccc(Cn3c(=O)c4ccccc4n(Cc4ccc(F)cc4Cl)c3=O)cc2)cc1OC,inactive: 91%
11,c1ccc2c(NCC3CCCO3)nc(N3CCCCC3)nc2c1 (stereo not drawn),inactive: 106%
12,CC(C)(C)c1ccc(C(=O)Nc2ccc(OCc3cc(=O)n4ccsc4n3)cc2)cc1,inactive: 90%
13,CCN1CCN(C(=O)c2ccc3c(c2)N(Cc2ccccc2)C(=O)c2ccccc2S3(=O)=O)CC1,inactive: 112%
14,CCCN1CCN(CCCNC(=O)c2ccc3c(c2)sc2nc(-c4ccc(OCC)cc4)cn23)CC1,inactive: 36%
15,Cc1ccc(CN(CC(=O)NC2CCCC2)C(=O)CSc2nnc(COc3ccccc3)o2)cc1,inactive: 112%
16,CCOc1ccc(-c2cn3c(n2)sc2cc(C(=O)N4CCCC(C)C4)ccc23)cc1 (stereo not drawn),inactive: 60%
17,Cc1nc(-c2ccc(F)cc2)sc1CCNC(=O)c1ccc(OC(C)C)cc1,inactive: 74%
18,Cc1cc(C)cc(OCC(=O)N(Cc2ccc(Cl)cc2)C2CCS(=O)(=O)C2)c1 (stereo not drawn),inactive: 92%
